Experimental data reported in PubChem BioAssay AID1346428 (National Center for Advancing Translational Sciences (NCATS), 2018).
Out of some 48,000 compounds screened, about 1,200 (2.5%) were called active. Not shown: some 2% with an inconclusive outcome.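 The calls were made as follows: active = activation of at least 60% and not above a set upper limit (about 1 call in 100 departs from these limits); inconclusive = activation of 40% to 60%, or above that upper limit; inactive = activation under 40%.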 This is one part of the list.

molecular target: Probable G-protein coupled receptor 32 (Homo sapiens) (UniProt O75388); test: qHTS for Agonists of Human Resolvin D1 Receptor DRV1; settings: CHO-K1 GPR32 beta-arrestin PathHunter luminescence, 90 min; at 76.9 µM; active compounds read high; zero percent set by DMSO-only wells; also: 0% is about no effect
Summary of the method: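 PathHunter beta-arrestin recruitment in CHO-K1 cells stably expressing ProLink-tagged GPR32. Cells were exposed to compound for 90 min at 37 C, then chemiluminescence was read after 1 h detection at ambient temperature; DMSO served as basal control.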

UniProt O75388, sequence (O75388 whole entry, looked up): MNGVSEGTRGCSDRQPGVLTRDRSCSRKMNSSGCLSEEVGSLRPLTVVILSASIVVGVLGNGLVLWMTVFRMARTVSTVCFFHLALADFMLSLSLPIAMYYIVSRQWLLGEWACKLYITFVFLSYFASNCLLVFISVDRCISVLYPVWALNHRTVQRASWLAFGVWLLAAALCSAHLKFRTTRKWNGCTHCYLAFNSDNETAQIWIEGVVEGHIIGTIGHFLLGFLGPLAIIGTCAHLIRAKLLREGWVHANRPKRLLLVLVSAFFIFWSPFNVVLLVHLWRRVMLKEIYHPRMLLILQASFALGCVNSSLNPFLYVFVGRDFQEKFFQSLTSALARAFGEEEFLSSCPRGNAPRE

Compound	activation
CCCCOC(=O)/C(C#N)=C/c1ccc(-c2ccc(Br)cc2)o1	inactive: -9.12%
CCC(=O)N1CCN(c2nc3c(C)cccc3s2)CC1	inactive: -0.0719%
COc1ccc(OC(=O)CSc2nnc(-c3ccc(F)cc3)o2)cc1	inactive: -15.1%
CCCn1c2ccccc2c2cnn(CC(=O)NC(C)CC)c(=O)c21 (configuration not stated)	inactive: -12.7%
Cc1ccc([N+](=O)[O-])c(Oc2ncnc3c2oc2ccccc23)c1	inactive: -2.07%
CCc1cccc(C)c1NC(=O)c1nc2ccccc2nc1N1CCCCC1	inactive: 47.3%
COc1ccc2c(Sc3ccccc3)c(C(=O)N3CCC(C)CC3)[nH]c2c1	inactive: -14%
Cc1ccc(N2C(=O)CSC23C(=O)N(CC(=O)Nc2ccc(C)cc2C)c2ccccc23)cc1 (configuration not stated)	inactive: -7.57%
Cc1c(N)c(=O)n(-c2ccccc2)n1C	inactive: -6.13%
Cc1ccc(NC(=O)CCCN2C(=O)COc3ccc(C)cc32)c(C)c1	inactive: -27.7%
O=S(=O)(c1ccccc1)c1nnn2c1nc(NC1CCCCCC1)c1sccc12	inactive: -3.11%
Cc1cccc(Cc2c(C)nc3nc(SCc4cccc(F)c4)nn3c2C)c1	inactive: -12.7%
COc1ccccc1CNC(=O)C(=O)NCC(c1cccnc1)N1CCN(c2ccc(F)cc2)CC1 (configuration not stated)	inactive: 2.27%
CCOc1ccc(CCNC(=O)CN2C(=O)COc3ccc(S(=O)(=O)N(CC)CC)cc32)cc1	inactive: -0.128%
Cc1ccc(Cn2ccnc2SCC(=O)NC2CCCC2)cc1	inactive: -2.34%
COc1cc(S(=O)(=O)n2ccnc2C(C)C)ccc1Br	inactive: -14.5%
Cc1ccc(-c2nc(S(=O)(=O)c3ccc(C)cc3)c(N3CCCCC3)o2)cc1	inactive: -5.54%
O=C(CN(c1cccc(C(F)(F)F)c1)S(=O)(=O)c1ccccc1)Nc1cccc(Cl)c1	inactive: 21.9%
COc1ccc2c(CNCc3ccco3)c(C(=O)O)n(Cc3ccccc3)c2c1	inactive: 13%

Compound	activation
COc1ccc(Cl)cc1NC(=O)Cn1nnc(C(=O)NCc2cccs2)c1N	inactive: -1.65%
C=CCOc1ccccc1OCC(O)CNC(C)C (configuration not stated)	inactive: -8.55%
COc1ccc(N2CCN(C(=O)c3c4c(nc5ccccc35)C(=O)N(C3CCCCC3)C4)CC2)cc1	inactive: -5.07%
COc1cccc(N2CC(NC(=O)C3CCCC3)CC2=O)c1 (configuration not stated)	inactive: 0.358%
O=C(Nc1ccc2nc(SCC(=O)N3CCCC3)sc2c1)c1cccc(F)c1	inactive: -6.42%
CCc1ccc(-n2c(=O)c3ccc(C(=O)NCCc4ccccc4)cc3n(Cc3ccccc3C#N)c2=O)cc1	inactive: -5.99%
COC(=O)c1c(-c2cccs2)csc1NC(=O)c1ccc(C(C)(C)C)cc1	inactive: 0.607%
CSc1ccc(C2c3[nH]c4ccccc4c3CCN2C(=O)CCC2CCCC2)cc1 (configuration not stated)	inactive: -38.2%
COc1ccc(-c2nc3ccccc3o2)cc1NC(=O)c1ccc(OCC(C)C)cc1	inactive: 1.62%
COc1ccc(-c2nnc(SCC(=O)c3ccc(NC(C)=O)cc3)o2)cc1OC	inactive: -11.4%
Cc1cc(C)cc(NC(=O)CCCc2nnc3n(CC(C)C)c(=O)c4sccc4n23)c1	inactive: -9.84%
Cc1ccc(NC(=O)c2ccc3c(c2)NC(=O)c2ccccc2S3)cc1	inactive: 12.7%
Cc1ccc(S(=O)(=O)C(CNC(=O)COc2ccc(Cl)cc2)c2ccco2)cc1 (configuration not stated)	inactive: -19.7%
CCOc1ccc(-c2nnc(SCC(=O)c3ccc(F)cc3)n2-c2ccccc2)cc1	inactive: -12%
CC(=O)Nc1cccc(NC(=O)CSc2nccn2Cc2ccco2)c1	inactive: -0.161%
COc1ccc(/C=C/C(=O)Nc2ccc(Cl)cc2Cl)cc1	inactive: 16%
COc1ccc2c(c1)c(CC(=O)O)c(C)n2C(=O)c1ccccc1	inactive: 3.43%
Cc1ccc(Cn2ccnc2SCC(=O)Nc2ccc3c(c2)OCCO3)cc1	inactive: -20.9%
CCN(CC)CCCNC(=O)C(=O)Nc1ccc2nc3n(c(=O)c2c1)CCCCC3	inactive: 4.19%

Compound	activation
Cc1ccccc1CNC(=O)c1cc2cccc3c2n1CC(C)S3 (configuration not stated)	inactive: -22.5%
O=C(Nc1cccc(Cl)c1)c1cc(S(=O)(=O)N2CCCc3ccccc32)ccc1F	inactive: -19.2%
CCOc1cc(C2CC(=O)Nc3c2c(=O)nc(SCc2cccc(Cl)c2)n3C)ccc1O (configuration not stated)	inactive: -20.3%
Cc1ccc(NC(=O)Cn2cc(C(=O)c3ccco3)c3ccccc32)c(C)c1	inactive: -14.3%
COc1ccc(-c2cc(C(=O)Nc3sc4c(c3C(N)=O)CCC(C)C4)no2)cc1 (configuration not stated)	inactive: -7.46%
Fc1ccccc1N1CCN(c2ncnc3onc(-c4cccc(Cl)c4)c23)CC1	inactive: 2.56%
Cc1c(NC(=O)Nc2ccc(Cl)c(C(F)(F)F)c2)c(=O)n(-c2ccccc2)n1C	inactive: -30.9%
CCOc1ccc(OCC)c(-n2cnnn2)c1	inactive: -11.6%
COc1cccc(OCc2cc(=O)n3cc(C)sc3n2)c1	inactive: -4.01%
CC(=O)Nc1ccc(NC(=O)c2nc(SCc3ccccc3C)ncc2Cl)cc1	active: 65.4%
NS(=O)(=O)c1ccc(NC(=O)CN2CCN(c3ccc(F)cc3)CC2)cc1	inactive: 3.32%
Cn1c(=O)c2c(-c3ccccc3Br)n(Cc3ccccc3)cc2n(C)c1=O	inactive: 0%
Cc1cccn2c(=O)cc(COc3ccc(NC(=O)C(C)Oc4ccccc4)cc3)nc12 (configuration not stated)	inactive: -4.89%
CCCCNC(=O)c1cc(-c2ccc(Cl)c(Cl)c2)on1	inactive: 8.61%
Cc1ccc(Cl)cc1-n1ncc2c(NCCC3=CCCCC3)ncnc21	inactive: 49%
COc1ccc(-c2cc3c(=O)n(CC(=O)Nc4cc(C)ccc4C)ccn3n2)cc1	inactive: -6.78%
CCc1ccc(C(=O)CSc2nc(-c3ccccc3)nc3c2CCCC3)cc1	inactive: -7.78%
Cc1ccc(CNC(=O)CN2C(=O)CSc3ccc(S(=O)(=O)N4CCCC4)cc32)cc1	inactive: -22.5%
Cc1ccc(C)c(N2CCN(S(=O)(=O)c3ccc4c(c3)CCCN4C(=O)C3CCC3)CC2)c1	inactive: -29.6%
